In all, about 350,000 compounds went through this assay and about 31,000 (8.9%) were called active. This list was built around the results that the source calls inconclusive (neither active nor inactive); the mix of calls is not that of the screen. Calls come from the whole dose curve; as a rule, active = well fitted inhibition curve with a large enough effect; inconclusive = small, poorly fitted or top-dose-only effect; inactive = no such curve, though single readings can be large or run the other way. Potencies of inconclusive entries are doubtful fits and often do not repeat.
molecular target: Histone-lysine N-methyltransferase EHMT2 (Homo sapiens) (UniProt Q96KQ7); test: qHTS Assay for Inhibitors of Histone Lysine Methyltransferase G9a; details: G9a H3K9 monomethylation, AlphaScreen, 2 h; activity, negative = inhibition: at 59 µM (top of the series) unless noted; note: nearly all actives have a fitted effect of over 75% in size
Method in brief: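 Signal arises when biotinylated H3K9 peptide, once monomethylated, bridges streptavidin donor and antibody-captured acceptor beads. Enzyme at 20 nM was preincubated 15 min with test compounds; peptide 500 nM and SAM 20 uM then reacted for 2 h.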
% is set by controls: 0 for no effect and ±100 for the full control effect; potency is the fitted concentration of half-maximal effect; tags give direction and shape of the fitted curve.

UniProt Q96KQ7, sequence (Q96KQ7 whole entry, looked up): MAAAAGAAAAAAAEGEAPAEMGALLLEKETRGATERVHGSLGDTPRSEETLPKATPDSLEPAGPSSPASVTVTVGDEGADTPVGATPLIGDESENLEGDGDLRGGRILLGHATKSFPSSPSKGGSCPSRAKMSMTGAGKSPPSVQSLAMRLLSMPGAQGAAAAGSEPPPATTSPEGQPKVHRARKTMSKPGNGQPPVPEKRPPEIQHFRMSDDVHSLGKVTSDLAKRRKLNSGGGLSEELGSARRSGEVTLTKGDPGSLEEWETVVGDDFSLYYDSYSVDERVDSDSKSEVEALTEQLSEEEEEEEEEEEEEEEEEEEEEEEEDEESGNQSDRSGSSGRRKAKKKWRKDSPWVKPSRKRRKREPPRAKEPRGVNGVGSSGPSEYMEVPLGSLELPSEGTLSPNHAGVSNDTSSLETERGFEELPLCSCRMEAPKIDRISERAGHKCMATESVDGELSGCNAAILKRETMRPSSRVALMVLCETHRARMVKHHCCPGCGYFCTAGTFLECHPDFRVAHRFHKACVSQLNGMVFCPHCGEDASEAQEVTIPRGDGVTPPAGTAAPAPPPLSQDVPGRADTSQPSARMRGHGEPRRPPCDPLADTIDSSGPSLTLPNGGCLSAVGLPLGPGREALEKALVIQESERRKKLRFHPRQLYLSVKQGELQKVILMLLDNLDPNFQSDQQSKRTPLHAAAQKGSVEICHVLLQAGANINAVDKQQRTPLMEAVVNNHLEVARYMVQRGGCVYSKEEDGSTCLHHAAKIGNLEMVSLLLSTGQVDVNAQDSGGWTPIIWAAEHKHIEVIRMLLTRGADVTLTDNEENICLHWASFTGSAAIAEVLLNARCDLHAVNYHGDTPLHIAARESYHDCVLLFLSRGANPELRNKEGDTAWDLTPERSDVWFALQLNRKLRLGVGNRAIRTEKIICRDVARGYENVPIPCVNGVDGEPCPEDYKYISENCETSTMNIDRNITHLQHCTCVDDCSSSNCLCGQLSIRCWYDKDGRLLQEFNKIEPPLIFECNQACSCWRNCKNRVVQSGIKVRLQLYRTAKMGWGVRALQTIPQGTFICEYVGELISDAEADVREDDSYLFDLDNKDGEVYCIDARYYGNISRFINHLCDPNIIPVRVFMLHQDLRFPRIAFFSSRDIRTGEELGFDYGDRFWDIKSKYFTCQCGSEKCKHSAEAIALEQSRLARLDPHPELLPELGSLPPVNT

| SMILES | Potency | activity, negative = inhibition |
| --- | --- | --- |
| COc1ccc(C(=O)n2nnc3ccccc32)cc1Br | inconclusive: 1.41 µM [inhibitor, full curve] | – |
| CCOc1ccc2c(c1)[N+](C)(C)C(C)(C)C=C2C | inconclusive: 50.1 µM [inhibitor, partial curve, poor fit] | – |
| Cc1ccccc1S(=O)(=O)Cc1ccc(C(=O)NC2CCCCC2C)o1 (stereo unspecified) | inactive | – |
| O=C(O)CSC(NC(=O)c1cccnc1)(C(F)(F)F)C(F)(F)F | active: 14.1 µM | – |
| CCOC(=O)c1c(C)[nH]c(C)c1C(=O)CSc1nnc(-c2ccco2)n1Cc1ccccc1 | inconclusive: 11.2 µM [inhibitor, partial curve, poor fit] | – |
| CCOC(=O)C1=C(C)N(C)C(C)=C(C(=O)OCC)C1c1ccc(Cl)cc1 | inactive | – |
| Cc1ccc(/C=N/n2c(-c3cccnc3)n[nH]c2=S)s1 | active: 0.794 µM | – |
| COC(=O)c1sc(S(=O)(=O)Nc2ccc(C)c(C)c2)c(C(=O)OC)c1C | inconclusive: 25.1 µM [inhibitor, single point] | – |
| CCOc1ccccc1/C=C/C(=O)NCC(=O)N1CCC(N(C)C2CCCCC2C)CC1 (stereo unspecified) | inconclusive: 44.7 µM [inhibitor, partial curve] | – |
| CC(C)=N/N=C1\NC(=O)C(C)S1 (stereo unspecified) | inactive | – |
| CC(=O)N1CCN(CC(=O)Nc2ccc(SC(F)F)cc2)CC1 | inconclusive: 28.2 µM [inhibitor, single point] | – |
| CCC(C(=O)Nc1ccccc1OC)n1c(C(=O)OC)cc2sc(Cl)cc21 (stereo unspecified) | inactive | – |
| Cc1ccc(OCC(=O)c2cc(C)n(C)c2C)c([N+](=O)[O-])n1 | inconclusive: 12.6 µM [inhibitor, partial curve, poor fit] | – |
| Cc1ccc(-c2csc3ncnc(Nc4ccc(N5CCOCC5)cc4)c23)cc1 | inconclusive: 8.91 µM [inhibitor, single point] | – |
| CCCc1c(OCCCOc2ccc(OCC(=O)O)cc2)ccc(C(C)=O)c1O | inactive | – |
| COC1CCN(C(=O)c2ccc(OC3CCN(CCc4ccccc4)CC3)cc2)CC1 | inconclusive: 63.1 µM [inhibitor, partial curve, poor fit] | – |
| CC(C)CN(C(=O)CN1CCN(c2ccc(O)cc2)CC1)c1c(N)n(CC(C)C)c(=O)[nH]c1=O | inconclusive: 39.8 µM [inhibitor, single point] | – |
| CC1CN(c2oc(-c3ccco3)nc2S(=O)(=O)c2ccccc2)CC(C)O1 (stereo unspecified) | inconclusive: 39.8 µM [inhibitor, single point] | – |
| CC(=O)N1CCc2cc(S(=O)(=O)NC(CC(C)C)C(=O)NCCc3cccc(C)c3)ccc21 (stereo unspecified) | inactive | – |
| Cn1c(=O)c2c(nc(NCCc3ccccc3)n2CC(=O)NCCc2ccccc2)n(C)c1=O | inconclusive: 50.1 µM [inhibitor, partial curve, poor fit] | – |
| COc1cc(C(=O)Nc2ccncc2)cc(OC)c1OC | inactive | – |
| O=C1CCCc2c1nc(-c1ccccc1F)n2O | inconclusive: 70.8 µM [inhibitor, single point] | – |
| COc1ccc(C(=O)Nc2nc3ccccc3n2CCOc2ccc(Cl)cc2)cc1 | inactive | – |

| SMILES | Potency | activity, negative = inhibition |
| --- | --- | --- |
| NS(=O)(=O)c1cnccc1Nc1ccc(Cl)cc1 | inconclusive: 89.1 µM [inhibitor, single point] | – |
| Cc1n[nH]c(=S)n1/N=C/c1ccccc1 | active: 10 µM | – |
| Cc1nc(NC(=O)C2CCCC2)sc1Cc1ccc2c(c1)OCO2 | inconclusive: 89.1 µM [inhibitor, single point] | – |
| COc1ccccc1C(=O)NC(=S)Nc1ccc(NC(=O)c2ccco2)cc1 | inconclusive: 0.158 µM [inhibitor, full curve, poor fit] | – |
| O=C(O)Cn1nnn(-c2ccccc2)c1=S | inconclusive: 22.4 µM [inhibitor, single point] | – |
| CNC(=O)c1cnc2sc(N3CCCCCC3)nn2c1=O | inactive | – |
| On1onc2c3cc(-c4ccccc4)nc3ccc21 | – | inconclusive: -95% [inhibitor] |
| CCCOc1ccc(Oc2nc(NCC(C)C)nc(N(C)C)n2)nn1 | inactive | – |
| COc1ccccc1C(CCNS(=O)(=O)c1ccc(C)cc1)c1ccco1 (stereo unspecified) | inconclusive: 79.4 µM [inhibitor, single point] | – |
| CCCN1C(=O)/C(=C\c2nc3ccccc3c(=O)[nH]2)c2ccccc21 | active: 31.6 µM | – |
| Cc1ccc2cc(CN(C(=O)c3ccco3)c3ccccc3C)c(=O)[nH]c2c1 | inconclusive: 70.8 µM [inhibitor, partial curve, poor fit] | – |
| O=C(Nc1nccs1)C1CCCN1S(=O)(=O)c1ccc(Cl)cc1 (stereo unspecified) | inactive | – |
| CCN(CC)CCOc1ccc(-c2nc3cc(Cl)ccc3s2)cc1 | – | inactive: -47.7% [at 12.7 µM] |
| N#Cc1cc([N+](=O)[O-])cnc1Nc1ccccc1 | inactive | – |
| CCC(C(=O)Nc1ccc(C)c(Cl)c1)n1c(=O)c(-c2ccccc2NC(C)=O)nc2ccccc21 (stereo unspecified) | inactive | – |
| O=[N+]([O-])c1ccc(N/N=C/c2ccccc2)c(F)c1 | inactive | – |
| O=[N+]([O-])c1ccc(Sc2ccccc2Cl)nc1 | inconclusive: 12.6 µM [inhibitor, partial curve] | – |
| COc1ccc(Cl)cc1NC(=O)Cn1c(=O)c2ccccc2n2nncc12 | inconclusive: 39.8 µM [inhibitor, single point] | – |
| CCCCCN(C(=O)CCC(=O)OC(C)C(=O)c1ccccc1)c1c(N)n(CCCC)c(=O)[nH]c1=O (stereo unspecified) | inconclusive: 44.7 µM [inhibitor, partial curve, poor fit] | – |
| CCOc1ccc(C(=O)NC(C)CCc2ccccc2)cc1 (stereo unspecified) | inconclusive: 63.1 µM [inhibitor, partial curve, poor fit] | – |
| COc1ccccc1CNc1nc(S(=O)(=O)c2ccccc2)c(Cl)s1 | inconclusive: 39.8 µM [inhibitor, single point] | – |
| CSc1ccccc1OCc1cc(C(=O)N2CCSCC2)no1 | inconclusive: 89.1 µM [inhibitor, single point] | – |
| O=C(C1CCCN1S(=O)(=O)c1cccc2cccnc12)N1CCN(c2ccccc2)CC1 (stereo unspecified) | inconclusive: 100 µM [inhibitor, single point] | – |

— PubChem BioAssay AID504332 (National Center for Advancing Translational Sciences (NCATS), 2011)
